Assay [1] addresses T1, LATS2 (in HL‐1 cells) (mouse (in HL-1 cells)) (UniProt Q7TSJ6).
T1 sequence: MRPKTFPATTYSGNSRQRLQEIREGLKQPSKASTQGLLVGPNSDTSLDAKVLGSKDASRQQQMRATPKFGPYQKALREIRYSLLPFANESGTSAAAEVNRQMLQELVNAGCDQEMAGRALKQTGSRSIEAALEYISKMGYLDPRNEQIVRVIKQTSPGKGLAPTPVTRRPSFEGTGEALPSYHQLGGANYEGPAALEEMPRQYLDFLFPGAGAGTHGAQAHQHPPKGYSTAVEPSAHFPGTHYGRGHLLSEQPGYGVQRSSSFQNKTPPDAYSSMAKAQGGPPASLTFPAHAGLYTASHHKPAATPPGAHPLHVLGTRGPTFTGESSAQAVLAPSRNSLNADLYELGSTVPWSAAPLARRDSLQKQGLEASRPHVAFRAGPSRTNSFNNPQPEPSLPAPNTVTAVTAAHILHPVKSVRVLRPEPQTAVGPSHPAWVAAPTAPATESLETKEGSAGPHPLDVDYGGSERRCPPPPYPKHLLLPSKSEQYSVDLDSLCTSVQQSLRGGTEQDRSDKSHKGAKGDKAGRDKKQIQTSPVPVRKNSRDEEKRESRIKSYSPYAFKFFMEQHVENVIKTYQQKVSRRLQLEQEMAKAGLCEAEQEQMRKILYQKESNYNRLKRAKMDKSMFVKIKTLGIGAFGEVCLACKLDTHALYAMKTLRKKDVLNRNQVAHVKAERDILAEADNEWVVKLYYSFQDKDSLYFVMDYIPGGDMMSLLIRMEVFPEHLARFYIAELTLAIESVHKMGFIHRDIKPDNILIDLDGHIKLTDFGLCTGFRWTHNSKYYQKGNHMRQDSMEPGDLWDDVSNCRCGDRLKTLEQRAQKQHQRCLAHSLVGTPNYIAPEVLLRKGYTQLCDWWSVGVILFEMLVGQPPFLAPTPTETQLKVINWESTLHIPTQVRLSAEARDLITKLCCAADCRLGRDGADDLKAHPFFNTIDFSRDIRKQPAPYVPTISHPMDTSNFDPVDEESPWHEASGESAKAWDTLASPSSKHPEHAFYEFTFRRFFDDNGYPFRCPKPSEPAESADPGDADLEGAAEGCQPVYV
In words: co-IP; HL-1 cells transfected with His-tagged DNA-PKcs or HA-tagged YAP1 constructs (wild type or deletion mutants), high glucose exposure; immunoprecipitation and immunoblot. In general terms: In western blotting, separated proteins are transferred to a membrane and probed.

The chains behind the UniProt entries cited, without tags or fusion partners.
UniProt P46938: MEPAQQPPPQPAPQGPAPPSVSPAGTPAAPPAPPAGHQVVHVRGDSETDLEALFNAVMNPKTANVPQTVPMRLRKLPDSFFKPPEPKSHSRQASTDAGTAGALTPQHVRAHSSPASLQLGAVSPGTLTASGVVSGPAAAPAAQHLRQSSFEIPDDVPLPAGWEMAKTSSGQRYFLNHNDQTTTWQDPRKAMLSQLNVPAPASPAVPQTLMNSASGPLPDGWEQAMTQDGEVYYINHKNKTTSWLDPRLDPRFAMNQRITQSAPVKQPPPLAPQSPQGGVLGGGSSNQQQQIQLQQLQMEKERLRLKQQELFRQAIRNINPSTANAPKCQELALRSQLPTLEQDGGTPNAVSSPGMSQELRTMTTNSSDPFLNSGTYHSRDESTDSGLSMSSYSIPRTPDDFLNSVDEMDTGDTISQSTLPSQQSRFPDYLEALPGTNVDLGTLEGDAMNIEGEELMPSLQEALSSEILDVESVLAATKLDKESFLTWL
UniProt P97313: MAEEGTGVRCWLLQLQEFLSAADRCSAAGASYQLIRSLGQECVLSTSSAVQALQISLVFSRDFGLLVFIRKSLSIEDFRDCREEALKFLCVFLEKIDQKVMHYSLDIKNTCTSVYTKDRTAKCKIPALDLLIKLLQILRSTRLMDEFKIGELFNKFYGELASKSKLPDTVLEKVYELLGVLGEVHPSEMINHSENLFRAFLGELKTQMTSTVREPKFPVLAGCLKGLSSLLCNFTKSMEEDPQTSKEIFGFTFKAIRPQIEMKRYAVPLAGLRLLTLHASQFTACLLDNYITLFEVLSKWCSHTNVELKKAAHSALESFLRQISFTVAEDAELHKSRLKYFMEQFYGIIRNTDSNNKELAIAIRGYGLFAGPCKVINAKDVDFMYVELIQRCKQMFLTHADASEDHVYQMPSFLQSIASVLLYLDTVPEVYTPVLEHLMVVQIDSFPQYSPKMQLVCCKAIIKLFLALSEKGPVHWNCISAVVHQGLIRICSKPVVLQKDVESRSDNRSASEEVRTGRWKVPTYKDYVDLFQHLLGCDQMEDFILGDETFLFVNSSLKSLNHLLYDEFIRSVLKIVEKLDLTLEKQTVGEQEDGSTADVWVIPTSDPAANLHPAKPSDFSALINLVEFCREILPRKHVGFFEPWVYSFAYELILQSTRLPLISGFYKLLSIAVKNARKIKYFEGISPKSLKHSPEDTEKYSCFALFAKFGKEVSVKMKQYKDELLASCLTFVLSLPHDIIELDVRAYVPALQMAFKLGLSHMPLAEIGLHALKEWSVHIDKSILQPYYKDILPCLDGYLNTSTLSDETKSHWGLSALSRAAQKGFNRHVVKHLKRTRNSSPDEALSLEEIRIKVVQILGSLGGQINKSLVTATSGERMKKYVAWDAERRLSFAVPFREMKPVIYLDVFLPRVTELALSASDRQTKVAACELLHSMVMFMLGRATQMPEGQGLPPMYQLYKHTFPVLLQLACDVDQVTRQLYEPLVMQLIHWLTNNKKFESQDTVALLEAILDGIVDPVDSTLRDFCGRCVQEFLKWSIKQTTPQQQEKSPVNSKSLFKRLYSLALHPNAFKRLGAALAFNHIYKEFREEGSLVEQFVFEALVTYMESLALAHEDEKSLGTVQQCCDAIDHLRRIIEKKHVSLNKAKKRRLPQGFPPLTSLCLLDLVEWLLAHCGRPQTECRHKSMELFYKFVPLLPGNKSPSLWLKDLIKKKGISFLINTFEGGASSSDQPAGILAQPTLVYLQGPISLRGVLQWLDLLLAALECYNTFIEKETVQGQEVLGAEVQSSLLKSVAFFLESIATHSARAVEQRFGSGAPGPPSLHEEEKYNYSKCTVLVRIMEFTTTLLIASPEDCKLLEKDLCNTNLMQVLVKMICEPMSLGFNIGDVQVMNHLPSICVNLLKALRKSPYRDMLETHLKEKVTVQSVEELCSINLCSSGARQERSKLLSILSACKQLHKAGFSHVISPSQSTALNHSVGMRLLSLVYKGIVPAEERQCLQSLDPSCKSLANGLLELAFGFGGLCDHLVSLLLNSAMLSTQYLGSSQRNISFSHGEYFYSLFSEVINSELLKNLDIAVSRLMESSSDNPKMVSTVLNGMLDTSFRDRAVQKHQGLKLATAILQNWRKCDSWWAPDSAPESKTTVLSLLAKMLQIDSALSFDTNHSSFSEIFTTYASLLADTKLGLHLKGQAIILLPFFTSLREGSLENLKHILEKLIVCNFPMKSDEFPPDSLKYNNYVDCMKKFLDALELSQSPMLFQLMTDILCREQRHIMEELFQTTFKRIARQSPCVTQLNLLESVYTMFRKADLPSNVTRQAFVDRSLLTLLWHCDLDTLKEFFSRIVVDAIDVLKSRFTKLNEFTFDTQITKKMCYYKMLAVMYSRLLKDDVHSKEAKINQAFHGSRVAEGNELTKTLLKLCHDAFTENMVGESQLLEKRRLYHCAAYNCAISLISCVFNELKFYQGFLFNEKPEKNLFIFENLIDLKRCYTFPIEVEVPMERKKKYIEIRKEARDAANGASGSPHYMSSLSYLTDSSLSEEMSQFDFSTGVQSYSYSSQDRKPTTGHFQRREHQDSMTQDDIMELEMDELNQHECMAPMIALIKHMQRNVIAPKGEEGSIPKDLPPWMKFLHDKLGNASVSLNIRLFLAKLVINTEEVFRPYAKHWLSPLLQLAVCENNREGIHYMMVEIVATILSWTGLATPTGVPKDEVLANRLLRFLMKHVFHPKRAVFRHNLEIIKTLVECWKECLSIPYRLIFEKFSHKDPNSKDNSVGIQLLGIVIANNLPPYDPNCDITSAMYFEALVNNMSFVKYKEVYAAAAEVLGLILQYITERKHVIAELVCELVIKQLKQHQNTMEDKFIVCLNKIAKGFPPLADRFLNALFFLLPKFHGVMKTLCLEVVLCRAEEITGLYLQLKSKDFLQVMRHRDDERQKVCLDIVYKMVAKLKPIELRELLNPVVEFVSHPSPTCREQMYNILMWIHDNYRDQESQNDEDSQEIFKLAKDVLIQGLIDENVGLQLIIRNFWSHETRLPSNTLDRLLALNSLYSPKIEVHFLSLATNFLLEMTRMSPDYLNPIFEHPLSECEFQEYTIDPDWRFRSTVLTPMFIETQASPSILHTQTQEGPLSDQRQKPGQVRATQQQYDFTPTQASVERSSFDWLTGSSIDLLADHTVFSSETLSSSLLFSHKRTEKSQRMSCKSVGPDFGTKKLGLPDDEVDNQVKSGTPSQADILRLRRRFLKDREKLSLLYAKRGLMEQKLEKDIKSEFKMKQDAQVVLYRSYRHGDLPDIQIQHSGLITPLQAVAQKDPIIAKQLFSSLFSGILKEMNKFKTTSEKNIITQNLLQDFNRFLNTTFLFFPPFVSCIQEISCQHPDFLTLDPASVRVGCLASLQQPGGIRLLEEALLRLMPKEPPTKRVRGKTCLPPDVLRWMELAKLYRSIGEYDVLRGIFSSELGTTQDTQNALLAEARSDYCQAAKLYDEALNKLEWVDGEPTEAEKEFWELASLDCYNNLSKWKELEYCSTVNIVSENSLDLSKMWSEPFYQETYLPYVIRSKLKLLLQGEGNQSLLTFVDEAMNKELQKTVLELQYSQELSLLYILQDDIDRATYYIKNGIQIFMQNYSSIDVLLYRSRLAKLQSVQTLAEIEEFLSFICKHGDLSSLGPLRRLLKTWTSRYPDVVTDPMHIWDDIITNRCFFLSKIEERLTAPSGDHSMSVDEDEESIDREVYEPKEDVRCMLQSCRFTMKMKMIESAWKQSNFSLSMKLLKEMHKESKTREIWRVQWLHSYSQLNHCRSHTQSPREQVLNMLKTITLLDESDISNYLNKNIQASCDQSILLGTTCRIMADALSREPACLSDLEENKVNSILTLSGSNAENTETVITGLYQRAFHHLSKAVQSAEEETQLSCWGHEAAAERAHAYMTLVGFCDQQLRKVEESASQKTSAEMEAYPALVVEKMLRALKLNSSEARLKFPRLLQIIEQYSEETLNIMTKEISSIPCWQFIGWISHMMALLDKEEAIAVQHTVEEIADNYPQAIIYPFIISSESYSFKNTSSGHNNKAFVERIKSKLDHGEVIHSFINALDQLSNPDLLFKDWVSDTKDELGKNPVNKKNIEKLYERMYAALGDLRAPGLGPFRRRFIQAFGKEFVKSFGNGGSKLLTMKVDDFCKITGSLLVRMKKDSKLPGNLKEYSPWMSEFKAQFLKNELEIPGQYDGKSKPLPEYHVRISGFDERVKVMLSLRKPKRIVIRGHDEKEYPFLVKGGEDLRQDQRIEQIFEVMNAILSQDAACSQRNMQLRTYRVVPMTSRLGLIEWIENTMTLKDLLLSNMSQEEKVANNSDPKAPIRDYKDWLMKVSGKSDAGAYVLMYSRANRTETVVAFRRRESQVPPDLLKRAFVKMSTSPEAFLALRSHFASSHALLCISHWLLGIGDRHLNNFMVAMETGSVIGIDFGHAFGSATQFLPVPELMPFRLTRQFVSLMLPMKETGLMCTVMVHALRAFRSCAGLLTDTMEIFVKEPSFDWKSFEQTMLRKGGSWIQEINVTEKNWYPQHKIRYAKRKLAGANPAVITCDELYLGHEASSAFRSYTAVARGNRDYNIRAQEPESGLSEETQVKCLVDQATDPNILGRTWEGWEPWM

Assay [2] has as its target T2, MST1 (in HL‐1 cells) (mouse (in HL-1 cells)) (UniProt Q9JI11).
T2 sequence: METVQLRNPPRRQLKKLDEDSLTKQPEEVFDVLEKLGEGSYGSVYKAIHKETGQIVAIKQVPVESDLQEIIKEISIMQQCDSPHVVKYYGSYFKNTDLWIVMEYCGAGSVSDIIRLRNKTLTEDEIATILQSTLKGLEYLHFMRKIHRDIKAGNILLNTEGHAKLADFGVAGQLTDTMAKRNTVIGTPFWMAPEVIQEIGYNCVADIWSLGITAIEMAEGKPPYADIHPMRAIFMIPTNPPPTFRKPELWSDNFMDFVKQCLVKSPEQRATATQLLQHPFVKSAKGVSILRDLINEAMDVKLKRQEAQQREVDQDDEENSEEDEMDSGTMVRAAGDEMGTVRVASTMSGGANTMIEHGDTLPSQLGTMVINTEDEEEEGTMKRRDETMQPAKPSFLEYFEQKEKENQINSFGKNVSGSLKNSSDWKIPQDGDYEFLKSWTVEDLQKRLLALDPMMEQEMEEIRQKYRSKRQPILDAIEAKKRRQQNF
The description is as above.

Assay [3] concerns the target HA‐tagged YAP1 (mouse (cDNA from HL-1 cells)) (UniProt P46938). Described as above.
The target of assay [4] is DNA‐Dependent Protein Kinase catalytic subunit (DNA‐PKcs) (mouse (endogenous in heart tissue)) (UniProt P97313). As to the kind of experiment: co-IP; immunoprecipitates of DNA-PKcs or YAP1 from heart tissues of mice with hyperglycemia-induced diabetic cardiomyopathy; Protein A/G magnetic beads, RIPA lysate, 4 °C overnight; immunoblot.

Results are given in words; binding and its absence hold for the method and conditions named. In cells and extracts the contact can be indirect. Some binding calls cover weakened binding; strength is not graded here.

With “His‐tagged DNA‐PKcs (from UniProt P97313 1-4128)”, the binding result in assay [1] is reported as “no binding”; in assay [2] it was “no binding”; in assay [3], “binds”.
“Yes‐Associated Protein 1 (YAP1) (from UniProt P46938 1-488)”: in assay [4], the binding entry is “binds”.

B1: MST1 (protein, UniProt Q9JI11 1-487)
chain: METVQLRNPPRRQLKKLDEDSLTKQPEEVFDVLEKLGEGSYGSVYKAIHKETGQIVAIKQVPVESDLQEIIKEISIMQQCDSPHVVKYYGSYFKNTDLWIVMEYCGAGSVSDIIRLRNKTLTEDEIATILQSTLKGLEYLHFMRKIHRDIKAGNILLNTEGHAKLADFGVAGQLTDTMAKRNTVIGTPFWMAPEVIQEIGYNCVADIWSLGITAIEMAEGKPPYADIHPMRAIFMIPTNPPPTFRKPELWSDNFMDFVKQCLVKSPEQRATATQLLQHPFVKSAKGVSILRDLINEAMDVKLKRQEAQQREVDQDDEENSEEDEMDSGTMVRAAGDEMGTVRVASTMSGGANTMIEHGDTLPSQLGTMVINTEDEEEEGTMKRRDETMQPAKPSFLEYFEQKEKENQINSFGKNVSGSLKNSSDWKIPQDGDYEFLKSWTVEDLQKRLLALDPMMEQEMEEIRQKYRSKRQPILDAIEAKKRRQQNF
With B1, the binding entry in assay [4] is on record as “no binding”.

B2: LATS2 (protein, UniProt Q7TSJ6 1-1042)
chain: MRPKTFPATTYSGNSRQRLQEIREGLKQPSKASTQGLLVGPNSDTSLDAKVLGSKDASRQQQMRATPKFGPYQKALREIRYSLLPFANESGTSAAAEVNRQMLQELVNAGCDQEMAGRALKQTGSRSIEAALEYISKMGYLDPRNEQIVRVIKQTSPGKGLAPTPVTRRPSFEGTGEALPSYHQLGGANYEGPAALEEMPRQYLDFLFPGAGAGTHGAQAHQHPPKGYSTAVEPSAHFPGTHYGRGHLLSEQPGYGVQRSSSFQNKTPPDAYSSMAKAQGGPPASLTFPAHAGLYTASHHKPAATPPGAHPLHVLGTRGPTFTGESSAQAVLAPSRNSLNADLYELGSTVPWSAAPLARRDSLQKQGLEASRPHVAFRAGPSRTNSFNNPQPEPSLPAPNTVTAVTAAHILHPVKSVRVLRPEPQTAVGPSHPAWVAAPTAPATESLETKEGSAGPHPLDVDYGGSERRCPPPPYPKHLLLPSKSEQYSVDLDSLCTSVQQSLRGGTEQDRSDKSHKGAKGDKAGRDKKQIQTSPVPVRKNSRDEEKRESRIKSYSPYAFKFFMEQHVENVIKTYQQKVSRRLQLEQEMAKAGLCEAEQEQMRKILYQKESNYNRLKRAKMDKSMFVKIKTLGIGAFGEVCLACKLDTHALYAMKTLRKKDVLNRNQVAHVKAERDILAEADNEWVVKLYYSFQDKDSLYFVMDYIPGGDMMSLLIRMEVFPEHLARFYIAELTLAIESVHKMGFIHRDIKPDNILIDLDGHIKLTDFGLCTGFRWTHNSKYYQKGNHMRQDSMEPGDLWDDVSNCRCGDRLKTLEQRAQKQHQRCLAHSLVGTPNYIAPEVLLRKGYTQLCDWWSVGVILFEMLVGQPPFLAPTPTETQLKVINWESTLHIPTQVRLSAEARDLITKLCCAADCRLGRDGADDLKAHPFFNTIDFSRDIRKQPAPYVPTISHPMDTSNFDPVDEESPWHEASGESAKAWDTLASPSSKHPEHAFYEFTFRRFFDDNGYPFRCPKPSEPAESADPGDADLEGAAEGCQPVYV
On to B2, for which the binding result in assay [4] is “no binding”.

The record behind these values is article PMC12302537.
